Measured values reported in the supplement of paper PMC12217912.
Some of the results follow. Sequences were assembled here from the parent chain. Inactive controls read about 0.05.

B1: TEV protease; numbered along this chain (parent)
chain: MGESLFKGPRDYNPISSSICHLTNESDGHTTSLYGIGFGPFIITNKHLFRRNNGTLVVQSLHGVFKVKDTTTLQQHLVDGRDMIIIRMPKDFPPFPQKLKFREPQREERICLVTTNFQTKSMSSMVSDTSCTFPSGDGIFWKHWIQTKDGQCGSPLVSTRDGFIVGIHSASNFTNTNNYFTSVPKNFMELLTNQEAQQWVSGWRLNADSVLWGGHKVFMVKPEEPFQPVKEATQL

Variants of: B1
Test: raw area under fraction-flipped curve 0-4 h after induction (AUC4h, not background-subtracted), DNA-recorder readout of cleavage of the substrate (dimensionless); higher = more cleavage of the substrate by the protease variant
Settings: temperature: 34 °C; time window: 0-4 h after rhamnose induction
Procedure: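 In vivo DNA recorder in E. coli TOP10(DE3) ΔrhaA at 34 °C. Each TEVp single-site mutant (parent TEVp 0) is paired with a single-site variant of the 7-mer TEVs (canonical ENLYFQ|S). The substrate sits between flexible linkers in a Bxb1-sfGFP-TEVs-SsrA fusion, so cleavage stabilises Bxb1 and speeds flipping of a recombination array, read by NGS. The value is the raw area under the fraction-flipped curve over 0-4 h after rhamnose induction (AUC4h), with ≥20 reads per time point. It is not background-subtracted; inactive controls average about 0.047.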
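Also: Bxb1 expression induced with 0.2% (w/v) L-rhamnose at OD600 near 0.5, cultures sampled hourly, flipped fraction per protease–substrate barcode pair counted by paired-end Illumina sequencing.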

Variant | area with substrate ENLAFQS | area with substrate ENLCFQS | area with substrate ENLDFQS | area with substrate ENLFFQS | area with substrate ENLHFQS | area with substrate ENLKFQS | area with substrate ENLNFQS | area with substrate ENLPFQS | area with substrate ENLRFQS | area with substrate ENLSFQS | area with substrate ENLVFQS | area with substrate ENLWFQS | area with substrate ENLIFQS | area with substrate ENLQFQS | area with substrate ENLEFQS | area with substrate ENLGFQS | area with substrate ENLMFQS | area with substrate ENLTFQS | area with substrate ENLLFQS
MGESLFKGPRDYNPISSSICHLTNESDGHTTSLYGIGFGPFIITNKHLFRRNNGTLVVQSLHGVFKVKDTTTLQQHLVDGRDMIIIRMPKDFPPFPQKLKFREPQREERICLVTTNFQTKSMSSMVSDTSCTFPSGDGIFWKHQIQTKDGQCGSPLVSTRDGFIVGIHSASNFTNTNNYFTSVPKNFMELLTNQEAQQWVSGWRLNADSVLWGGHKVFMVKPEEPFQPVKEATQL [W144Q] | 0.0616 | 0.0465 | 0.0579 | 0.1 | 0.0745 | 0.0851 | 0.0666 | 0.0588 | 0.0522 | 0.0727 | 0.0853 | 0.083 | – | – | – | – | – | – | –
MGESLFKGPRDYNPISSSICHLTNESDGHTTSLYGIGFGPFIITNKHLFRRNNGTLVVQSLHGVFKVKDTTTLQQHLVDGRDMIIIRMPKDFPPFPQKLKFREPQREERICLVTTNFQTKSMSSMVSDTSCTFPSGDGIFWKHWIQTKDGQCGSPLVSTRDGFIVGIHSASNFTNTVNYFTSVPKNFMELLTNQEAQQWVSGWRLNADSVLWGGHKVFMVKPEEPFQPVKEATQL [N177V] | 0.0793 | 0.0844 | 0.0591 | 0.131 | 0.0645 | 0.0972 | 0.0498 | 0.0771 | – | – | 0.166 | – | 0.0961 | 0.0739 | – | – | – | – | –
MGESLFKGPRDYNPISSSICHLTNESDGHTTSLYGIGFGPFIITNKHLFRRNNGTLVVQSLHGVFKVKDTTTLQQHLVDGRDMIIIRMPKDFPPFPQKLKFREPQREERICLVTTNFQTKSMSSMVSDTSCTFPSGDGIFWKHWIQTKDGQCGSPLVSTRDGFIVGIHSASNFTNTNNYFTWVPKNFMELLTNQEAQQWVSGWRLNADSVLWGGHKVFMVKPEEPFQPVKEATQL [S182W] | 0.0506 | 0.0733 | 0.0626 | – | – | – | – | – | – | 0.0711 | – | 0.0606 | 0.051 | 0.0546 | 0.0662 | 0.0746 | 0.0642 | 0.0574 | –
MGESLFKGPRDYNPISSSICHLMNESDGHTTSLYGIGFGPFIITNKHLFRRNNGTLVVQSLHGVFKVKDTTTLQQHLVDGRDMIIIRMPKDFPPFPQKLKFREPQREERICLVTTNFQTKSMSSMVSDTSCTFPSGDGIFWKHWIQTKDGQCGSPLVSTRDGFIVGIHSASNFTNTNNYFTSVPKNFMELLTNQEAQQWVSGWRLNADSVLWGGHKVFMVKPEEPFQPVKEATQL [T23M] | 0.0712 | 0.0722 | 0.0642 | 0.0866 | 0.0684 | 0.077 | 0.0517 | 0.0397 | 0.0783 | – | 0.0855 | 0.0711 | 0.0753 | – | 0.0549 | 0.0663 | – | – | –
MGESLFKGPRDYNPISSSICHLTNESDGHTTSLYGIGFGPFGITNKHLFRRNNGTLVVQSLHGVFKVKDTTTLQQHLVDGRDMIIIRMPKDFPPFPQKLKFREPQREERICLVTTNFQTKSMSSMVSDTSCTFPSGDGIFWKHWIQTKDGQCGSPLVSTRDGFIVGIHSASNFTNTNNYFTSVPKNFMELLTNQEAQQWVSGWRLNADSVLWGGHKVFMVKPEEPFQPVKEATQL [I42G] | 0.0391 | 0.0401 | 0.0422 | 0.0419 | 0.0423 | 0.0502 | 0.05 | 0.0521 | 0.0451 | 0.0264 | 0.0565 | 0.0468 | 0.0546 | 0.0541 | 0.0652 | – | 0.0732 | – | 0.0519
MGESLFKGPRDYNPISSSICHLTNESDGHTTSLYGIGFGPFIITNKHLFRRNNGTLVVQSLHGVFKVKDTTTLQQHLVDGRDMIIIRMPKDFPPFPQKLKFREPQREERICLVTTNFQTKSMSSMVSDTSCTFPSGDGIFWKHWIQTKDGQCGSPLVSTRDGFIVGIHSAGNFTNTNNYFTSVPKNFMELLTNQEAQQWVSGWRLNADSVLWGGHKVFMVKPEEPFQPVKEATQL [S171G] | 0.0599 | – | 0.0599 | 0.0647 | – | 0.0567 | – | – | – | – | 0.0739 | – | – | – | – | 0.0496 | – | – | –
MGESLFKGPRDYNPISSSICHLTNESDGHTTSLYGIGFGPFIITNKHLFRRNNGTLVVQSLHGVFKVKDTTTLQQHLVDGRDMIIIRMPKDFPPFPQKLKFREPQREERICLVTTNFQTKSMSSMVSDTSCTFPSGDGIFWKHWIQTKDGQCGSPLVSTRDGFIVGIHSASNFTNTNNYFTSVPKNFMILLTNQEAQQWVSGWRLNADSVLWGGHKVFMVKPEEPFQPVKEATQL [E189I] | 0.0639 | – | 0.0639 | – | 0.0839 | 0.0814 | – | 0.0335 | – | 0.0618 | 0.0981 | – | – | – | 0.0653 | – | – | – | –
MGESLFKGPRDYNPISSSICHLTNESDGHTTSLYGIGFGPFIITNKHLFRRNNGTLVVQSLHGVFKVKDTTTLQQHLVDGRDMIIIRMPKDFPPFPQKLKFREPQREERICLVTTNFQTKSMSSMVSDTSCTFPSGDGIFWKHWIQTKDGQCGSELVSTRDGFIVGIHSASNFTNTNNYFTSVPKNFMELLTNQEAQQWVSGWRLNADSVLWGGHKVFMVKPEEPFQPVKEATQL [P155E] | 0.0545 | 0.0545 | 0.0481 | – | 0.0579 | – | – | 0.06 | – | 0.0596 | 0.0517 | 0.0333 | – | 0.0521 | 0.0506 | – | – | – | 0.0559
MGESLFKGPRDYNPISSSICHLTNESDGHTTSLYGIGFGPFIITNKHLFRRNNGTLVVQSLHGVFKVKDTTTLQQHLVDGRDMIIIRMPKDFPPFPQKLKFREPQREERICLVTTNFQTKSMSSMVSDTSCTFPSGDGIFWKHWIQTKDGQCGSPLVSTRDGFIVGIHSASNFTNLNNYFTSVPKNFMELLTNQEAQQWVSGWRLNADSVLWGGHKVFMVKPEEPFQPVKEATQL [T176L] | 0.0552 | – | 0.0703 | 0.0722 | 0.0628 | 0.0644 | – | 0.0626 | – | – | 0.0468 | 0.0543 | – | 0.0572 | 0.0642 | 0.0547 | 0.074 | – | 0.0555
MGESLFKGPRDYNPISSSICHLTNESDGHTTSLYGIGFGPFWITNKHLFRRNNGTLVVQSLHGVFKVKDTTTLQQHLVDGRDMIIIRMPKDFPPFPQKLKFREPQREERICLVTTNFQTKSMSSMVSDTSCTFPSGDGIFWKHWIQTKDGQCGSPLVSTRDGFIVGIHSASNFTNTNNYFTSVPKNFMELLTNQEAQQWVSGWRLNADSVLWGGHKVFMVKPEEPFQPVKEATQL [I42W] | 0.0607 | – | 0.0529 | 0.0526 | 0.0569 | 0.0566 | 0.0585 | 0.0545 | 0.0509 | 0.0486 | 0.0628 | 0.0554 | 0.0635 | – | 0.0529 | 0.0556 | 0.0623 | – | 0.0461
